# PubChem BioAssay (NCATS)
# The other results are listed elsewhere or left out. Further columns of the screen follow, without active or inactive calls. For some assays here: Compounds called inactive in the main read-out are mostly missing here. The note in brackets gives the kind of curve behind each potency; many fits are weak.
# Assays:
# [1] = target: Phenylethanolamine N-methyltransferase (Homo sapiens) (UniProt P11086); assay: Confirmatory Screen for Target Class Profiling of Small Molecule Inhibitors of Methyltransferases (AID 1745852); conditions: MTase-Glo luminescence, SAH detection, recombinant enzyme; measured here: PNMT inhibition potency;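 also: inhibitor potency for blocking SAH production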
# [2] = target: Nicotinamide N-methyltransferase (Homo sapiens) (UniProt P40261); assay: as above; conditions: MTase-Glo luminescence, SAH detection, recombinant enzyme; measured here: NNMT inhibition potency
# [3] = qHTS drug screen for cell cycle checkpoint inhibitors in PARPi-resistant BRCA-mutant ovarian cancer cell lines. (AID 1963452); conditions: PEO1/OlaR viability, CellTiter-Glo luminescence, 96 h
# Procedure, shortened: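 PEO1, PEO4 and PEO1/OlaR ovarian cancer cells, 600 per well, exposed 96 h at 37C to a dilution series. Viability read by CellTiter-Glo luminescence, normalized to DMSO and empty wells; activity summarized as Z-AUC.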
# [4] = qHTS for identification of novel therapeutic agents for treatment of microphthalmiaassociated transcription factor (MiT) renal cell carcinoma (RCC) (AID 1963991); conditions: CellTiter-Glo, 48 h; for z-score: stronger effect = lower value
# Procedure, shortened: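 Viability of three TFE3-fusion renal carcinoma lines measured by CellTiter-Glo after 48 h treatment with each of 1912 compounds at 11 concentrations. Responses scaled between DMSO (100%) and empty wells (0%) before curve fitting.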
# [5] = measured here: PEO1 parental viability
# [6] = TFE3-RCC viability, measured here: UOK124 cell viability
# [7] = TFE3-RCC viability, measured here: UOK145 cell viability
# [8] = TFE3-RCC UOK109 viability, measured here: UOK109 Z-AUC
# [9] = TFE3-RCC viability, measured here: UOK124 Z-AUC
# [10] = TFE3-RCC viability, measured here: UOK145 Z-AUC
# Tags tell the direction and shape of the fitted curve.
# Chain of UniProt P40261 (P40261 whole entry, looked up): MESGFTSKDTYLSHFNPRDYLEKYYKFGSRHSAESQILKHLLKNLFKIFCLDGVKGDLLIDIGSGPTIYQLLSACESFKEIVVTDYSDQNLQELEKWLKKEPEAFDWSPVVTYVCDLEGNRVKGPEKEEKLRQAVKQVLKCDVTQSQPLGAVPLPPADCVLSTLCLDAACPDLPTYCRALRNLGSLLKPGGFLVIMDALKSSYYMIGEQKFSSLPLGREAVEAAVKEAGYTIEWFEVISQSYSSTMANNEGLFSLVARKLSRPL
# Chain of UniProt P11086 (P11086 whole entry, looked up): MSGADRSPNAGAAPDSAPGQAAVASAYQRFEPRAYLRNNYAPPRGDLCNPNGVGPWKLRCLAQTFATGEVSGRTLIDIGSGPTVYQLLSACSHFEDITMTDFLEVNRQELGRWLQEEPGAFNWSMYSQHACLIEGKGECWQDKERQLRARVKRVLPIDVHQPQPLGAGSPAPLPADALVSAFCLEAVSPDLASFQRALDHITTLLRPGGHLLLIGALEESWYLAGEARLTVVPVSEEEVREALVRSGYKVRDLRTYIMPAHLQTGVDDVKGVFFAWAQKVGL
compound,measurement,setting,value
CC(=O)Nc1cc(-c2cc(C(=O)NCc3cccnc3)c3c(c2)N(C)CCO3)ccn1,IC50,[1],"44.1 µM [falling, partial curve, poor fit]"
COc1cccc(NC(=O)Cn2c(=O)oc3cc(S(=O)(=O)N4CCCC4)ccc32)c1,IC50,[1],"21.5 µM [falling, partial curve]"
O=C(Cn1c(=O)oc2cc(S(=O)(=O)N3CCCC3)ccc21)Nc1cccc(Cl)c1,IC50,[1],"15.2 µM [falling, partial curve]"
O=C(Cn1c(=O)oc2cc(S(=O)(=O)N3CCCC3)ccc21)NCCC1=CCCCC1,IC50,[1],"6.81 µM [falling, full curve]"
CC(C)c1cc(-c2n[nH]c(=O)n2-c2ccc3c(ccn3C)c2)c(O)cc1O,IC50,[2],"27.1 µM [falling, partial curve]"
same,AC50,[3]; [5],"0.049 µM [falling, full curve]"
same,AC50,[3]; measured here: PEO4 viability,"0.049 µM [falling, full curve]"
same,AC50,[4]; [6],"0.0935 µM [falling, full curve]"
same,AC50,[4]; [7],"0.105 µM [falling, full curve]"
CC(=O)Nc1ccc2c(c1)C1C=CCC1C(c1ccccc1F)N2 (configuration not stated),IC50,[1],"24.1 µM [falling, partial curve, poor fit]"
O=C1NC(=O)C(c2cnc3ccccn23)=C1c1cn2c3c(cc(F)cc13)CN(C(=O)N1CCCCC1)CC2,IC50,[2],"21.5 µM [falling, partial curve]"
same,AC50,[3]; [5],"0.0776 µM [falling, full curve]"
same,AC50,[3]; measured here: PEO4 viability,"0.049 µM [falling, full curve]"
CCOC(=O)[C@@H](N)Cc1ccc(-c2cc(O[C@H](c3ccc(Cl)cc3-n3ccc(C)n3)C(F)(F)F)nc(N)n2)cc1,IC50,[2],"13.6 µM [falling, partial curve]"
same,AC50,[3]; [5],"24.5 µM [falling, single point]"
same,AC50,[3]; measured here: PEO4 viability,"24.5 µM [falling, single point]"
same,z-score,[4]; [8],0.693
same,z-score,[4]; [9],-0.179
same,AC50,[4]; [6],"33.2 µM [falling, single point]"
same,z-score,[4]; [10],0.428
same,AC50,[4]; [7],"29.6 µM [falling, single point]"
O=C(O)c1ccc(O)c2ncc(N3CCCN(CCc4cccc5ccccc45)CC3)cc12,IC50,[1],"24.3 µM [falling, partial curve]"
Nc1ccccc1NC(=O)c1ccc(CNc2nccc(-c3cccnc3)n2)cc1,IC50,[2],"4.85 µM [falling, partial curve, poor fit]"
same,AC50,[3]; [5],"1.95 µM [falling, full curve]"
same,AC50,[3]; measured here: PEO4 viability,"3.47 µM [falling, full curve]"
same,z-score,[4]; [8],-0.866
same,z-score,[4]; [9],-1.24
same,AC50,[4]; [6],"2.35 µM [falling, full curve]"
same,z-score,[4]; [10],-0.639
same,AC50,[4]; [7],"11.8 µM [falling, partial curve]"
CC1=C(C(=O)OC2CCCCC2)C(c2ccc([N+](=O)[O-])cc2)C2=C(CC(C)(C)CC2=O)N1 (configuration not stated),IC50,[1],"15.2 µM [falling, partial curve]"
Cc1cnc(Nc2ccc(CN3CCOCC3)cc2)nc1Nc1cccc(S(=O)(=O)NC(C)(C)C)c1,IC50,[2],"24.1 µM [falling, partial curve]"
same,AC50,[3]; [5],"3.89 µM [falling, full curve]"
same,AC50,[3]; measured here: PEO4 viability,"6.92 µM [falling, partial curve]"
same,AC50,[4]; [6],"5.26 µM [falling, full curve]"
same,AC50,[4]; [7],"13.2 µM [falling, partial curve]"
CC1(C)CC(=O)c2c(C(F)(F)F)nn(-c3ccc(C(N)=O)c(NC4CCC(OC(=O)CN)CC4)c3)c2C1 (configuration not stated),IC50,[2],"21.5 µM [falling, partial curve]"
same,AC50,[3]; [5],"0.138 µM [falling, full curve]"
same,AC50,[3]; measured here: PEO4 viability,"0.123 µM [falling, full curve]"
same,z-score,[4]; [8],-1.02
same,z-score,[4]; [9],-0.399
same,AC50,[4]; [6],"0.148 µM [falling, full curve]"
same,z-score,[4]; [10],-1.12
same,AC50,[4]; [7],"0.332 µM [falling, full curve]"
C[S+](=O)([O-])N1CCC(Cn2ccc3c(N4CCOCC4)nc(-c4cccc5[nH]ncc45)cc32)CC1,IC50,[1],"38.3 µM [falling, single point]"
CCn1nnc2c(N3CCOCC3)nc(-c3ccc(NC(=O)Nc4ccc(C(=O)N5CCN(C)CC5)cc4)cc3)nc21,IC50,[2],"17.1 µM [falling, partial curve]"
same,AC50,[3]; [5],"0.0871 µM [falling, full curve]"
same,AC50,[3]; measured here: PEO4 viability,"0.0871 µM [falling, full curve]"
same,AC50,[4]; [6],"0.118 µM [falling, full curve]"
same,AC50,[4]; [7],"0.209 µM [falling, full curve]"
Cc1cc(=O)oc2c(C=O)c(O)ccc12,IC50,[1],"24.1 µM [falling, partial curve]"
Cc1ccccc1-n1c(Cn2nc(-c3cccc(O)c3)c3c(N)ncnc32)nc2cccc(C)c2c1=O,IC50,[2],"24.1 µM [falling, partial curve, poor fit]"
same,AC50,[3]; [5],"17.4 µM [falling, single point]"
same,z-score,[4]; [8],-1.14
same,z-score,[4]; [9],0.516
same,AC50,[4]; [6],"0.418 µM [falling, full curve]"
same,z-score,[4]; [10],-0.374
same,AC50,[4]; [7],"0.264 µM [falling, full curve]"
O=C1c2ccccc2C(=O)c2cc(S(=O)(=O)NCCO)ccc21,IC50,[1],"24.1 µM [falling, partial curve, poor fit]"
Cc1ccccc1-c1[nH]nc2ncc(-c3c(C)noc3C)nc12,IC50,[1],"44.1 µM [falling, partial curve, poor fit]"
NS(=O)(=O)c1ccc(Nc2nc(OCC3CCCCC3)c3[nH]cnc3n2)cc1,IC50,[2],"7.64 µM [falling, partial curve]"
same,AC50,[3]; [5],"19.5 µM [falling, partial curve]"
same,AC50,[3]; measured here: PEO4 viability,"13.8 µM [falling, partial curve, poor fit]"
same,z-score,[4]; [8],0.251
same,z-score,[4]; [9],0.563
same,AC50,[4]; [6],"33.2 µM [falling, single point]"
same,z-score,[4]; [10],0.0223
same,AC50,[4]; [7],"20.9 µM [falling, partial curve, poor fit]"
CCCS(=O)(=O)Nc1ccc(F)c(C(=O)c2c[nH]c3ncc(-c4ccc(Cl)cc4)cc23)c1F,IC50,[2],"10.8 µM [falling, partial curve, poor fit]"
same,AC50,[3]; [5],"19.5 µM [falling, partial curve]"
same,AC50,[3]; measured here: PEO4 viability,"15.5 µM [falling, single point]"
same,z-score,[4]; [8],0.0416
same,z-score,[4]; [9],0.208
same,AC50,[4]; [6],"20.9 µM [falling, single point]"
same,z-score,[4]; [10],-0.0944
same,AC50,[4]; [7],"23.5 µM [falling, partial curve]"
CC(NC(=O)c1ccc2c(=O)nc3c(-c4cccc(F)c4)n[nH]n3c2c1)c1ccc(F)cc1 (configuration not stated),IC50,[1],"24.1 µM [falling, partial curve, poor fit]"
O=C(Cn1c(=O)oc2cc(S(=O)(=O)N3CCCC3)ccc21)Nc1ccc(F)c(Cl)c1,IC50,[1],"6.81 µM [falling, partial curve]"
O=c1c2ccccc2n2c(-c3cc(Cl)ccc3O)nnc2n1Cc1ccc(F)cc1,IC50,[1],"27.1 µM [falling, partial curve, poor fit]"
Cc1ccc([N+](=O)[O-])cc1S(=O)(=O)N(C)/N=C/c1cnc2ccc(Br)cn12,IC50,[2],"19.2 µM [falling, partial curve]"
same,AC50,[3]; [5],"0.138 µM [falling, full curve]"
same,AC50,[3]; measured here: PEO4 viability,"0.0871 µM [falling, full curve]"
COc1cccc(NC(=O)Cn2c(=O)oc3cc(S(=O)(=O)N4CC(C)CC(C)C4)ccc32)c1 (configuration not stated),IC50,[1],"12.1 µM [falling, partial curve]"
NC(=O)c1ccccc1Nc1ccnc(Nc2cccc(O)c2)n1,IC50,[2],"21.5 µM [falling, partial curve]"
same,AC50,[3]; [5],"6.16 µM [falling, partial curve]"
same,AC50,[3]; measured here: PEO4 viability,"0.977 µM [falling, partial curve]"
Nc1ncnc2c1ncn2[C@H]1O[C@@H](C(=O)N2CCN(CC(=O)Nc3cccc4c3CNC4=O)CC2)[C@H](O)[C@@H]1O,IC50,[1],"21.5 µM [falling, partial curve]"
Nc1nc(NCCNc2ncc(-n3ccnc3)c(-c3ccc(Cl)cc3Cl)n2)ccc1[N+](=O)[O-],IC50,[2],"24.1 µM [falling, partial curve]"
same,z-score,[4]; [8],-1.4
same,z-score,[4]; [9],-0.514
same,AC50,[4]; [6],"13.2 µM [falling, partial curve]"
same,z-score,[4]; [10],-0.605
same,AC50,[4]; [7],"9.35 µM [falling, full curve]"
COCCn1ccc2c(C3=CCOCC3)nc(-c3cccc4[nH]ccc34)cc21,IC50,[1],"39.3 µM [falling, single point]"
CC1CC(C)CN(S(=O)(=O)c2ccc3c(c2)oc(=O)n3CC(=O)Nc2ccc(F)cc2)C1 (configuration not stated),IC50,[1],"19.2 µM [falling, partial curve]"
CCS(=O)(=O)N1CCN(c2ccc(Nc3ncc(C(N)=O)c(NC4CC4)n3)cc2)CC1,IC50,[2],"12.1 µM [falling, partial curve]"
same,AC50,[3]; [5],"3.89 µM [falling, partial curve]"
same,AC50,[3]; measured here: PEO4 viability,"6.92 µM [falling, partial curve]"
CN(C)C/C=C/C(=O)Nc1cccc(C(=O)Nc2cccc(Nc3ncc(Cl)c(-c4c[nH]c5ccccc45)n3)c2)c1,IC50,[2],"4.82 µM [falling, full curve]"
same,AC50,[3]; [5],"0.123 µM [falling, full curve]"
same,AC50,[3]; measured here: PEO4 viability,"0.123 µM [falling, full curve]"
N#Cc1c(C2CCNCC2)cc(-c2c(O)cccc2OCC2CC2)nc1N,IC50,[2],"21.5 µM [falling, partial curve]"
same,z-score,[4]; [8],-0.323
same,z-score,[4]; [9],-0.27
same,AC50,[4]; [6],"23.5 µM [falling, partial curve]"
same,z-score,[4]; [10],0.712
same,AC50,[4]; [7],"16.6 µM [falling, partial curve]"
